Hit rate of the full screen: of about 410,000 compounds, about 5,000 (1.2%) were called active. Inconclusive means that the source gave no clear call. Such entries were picked first, then a sample of the others. Calls follow the shape of the dose curve; as a rule, active = well fitted inhibition curve with a large enough effect; inconclusive = small, poorly fitted or top-dose-only effect; inactive = no such curve, though single readings can be large or run the other way. Potencies of inconclusive entries are doubtful fits and often do not repeat.
Experiment: qHTS for Inhibitors of TGF-b; also: nearly all actives have a fitted effect of over 65% in size
Settings: HepG2 CAGA-GFP TGF-b/SMAD3 reporter, GFP fluorescence, 18 h, TGF-beta stimulated, 500 pg/mL final; series mostly up to 46.1 µM; activity, negative = inhibition: at the top concentration
In short: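 GFP signal (ex488/em500-530) from TGF-beta-stimulated HEPG2 CAGA-GFP cells, 500 pg/mL final, 18 h at 37 degrees C in DMEM plus 1% FBS, normalized to unstimulated and DMSO-stimulated controls.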
% is scaled to controls: 0 for no effect and ±100 for the full control effect; potency is read from the fitted curve at half-maximal effect; tags tell the direction and shape of the fitted curve.

SMILES	Potency	activity, negative = inhibition
Cc1noc2ncnc(N3CCN(c4cccc(C(F)(F)F)c4)CC3)c12	inconclusive: 1 µM [inhibitor, partial curve, poor fit]	
CC(=O)N1CCN(C(=O)COC(=O)/C=C/c2ccccc2[N+](=O)[O-])CC1		inactive: 8.78%
CSc1cccc(NC(=S)N(CCCN2CCC(C)CC2)Cc2cccs2)c1	inconclusive: 35.5 µM [inhibitor, single point]	
COc1ccc(C(=O)Nc2oc(-c3ccccc3)c(-c3ccccc3)c2C#N)cc1		inactive: -22.8%
O=C(CSc1nc2c([nH]c3ccccc32)c(=O)n1-c1ccccc1)Nc1ccc2c(c1)OCO2		inactive: -7.35%
COc1ccc(/C=C(/NC(=O)c2ccc(Br)o2)C(=O)Nc2cccc(C(=O)O)c2)cc1		inactive: -3.26%
O=C(CSc1ccccc1C(=O)NCCCN1CCCC1=O)NCc1ccco1		inactive: -27.1%
O=c1cc(-c2ccc(C3CCCCC3)cc2)[nH][nH]1		inactive: -2.34%
CC1CN(C(=O)C(C)Sc2nc3ccccc3s2)CC(C)O1 (configuration not stated)		inactive: 5.38%
C=CCSc1nc2c(cnn2-c2ccccc2)c(=O)n1N		inactive: -15.7%
COc1cccc(NC(=O)c2c(C)nn(-c3cccc(C)c3)c2-n2cccc2)c1	inconclusive: 35.5 µM [inhibitor, single point]	
COc1ccc(CCNC(=O)C(=O)NCc2cccs2)cc1OC		inactive: -9.17%
O=C(c1ccc(Cn2c(=O)[nH]c3ccccc3c2=O)cc1)N1CCN(c2ccccn2)CC1	inconclusive: 35.5 µM [inhibitor, single point]	
O=C(NC1CC1)C1CCN(S(=O)(=O)c2ccc(Cl)c([N+](=O)[O-])c2)CC1	inconclusive: 35.5 µM [inhibitor, single point]	
Cc1ccc(S(=O)(=O)NCCCCCCNS(=O)(=O)c2ccc(C)cc2)cc1	inconclusive: 12.6 µM [inhibitor, single point]	
COc1ccc(-c2ccc(CN3C(C)C(=O)N(Cc4cn(CCC5OCCCO5)nn4)CCS3(=O)=O)cc2)cc1 (configuration not stated)		inactive: 21.5%
CC(C)(C)c1ccccc1NC(=S)NCc1ccccc1		inactive: -26.2%
C/C(CC(=O)Nc1ccc(Cl)cc1C(F)(F)F)=N\NC(=O)c1cccs1	inconclusive: 3.55 µM [inhibitor, partial curve, poor fit]	
CCCCNc1c(-c2ccc(SC3CCCCC3)cc2)nc2cnccn12	inconclusive: 35.5 µM [inhibitor, single point]	
CN1C(=O)N(C)C2(c3ccccc3)N(C(C)(C)C)C(=O)NC12c1ccccc1 (configuration not stated)		inactive: -22.5%
CN(Cc1ccccc1)C(=O)c1oc(=O)c2ccccc2c1-c1ccccc1		inactive: 13.9%
OCC1OC(c2ccccc2)OC2COC(c3ccccc3)OC12 (configuration not stated)		inactive: 10.4%
CC(C)N(Cc1ccccc1)C(=O)c1nc(-c2ccc(Cl)cc2)n2c1CCCCC2	inconclusive: 25.1 µM [inhibitor, single point]	

SMILES	Potency	activity, negative = inhibition
CC(=O)Nc1ccc(NC(=O)c2ccccc2S(=O)(=O)c2ccccc2[N+](=O)[O-])cc1	inconclusive: 8.91 µM [inhibitor, partial curve, poor fit]	
CN1CCN(CCC(=O)N2c3ccccc3Sc3ccc(C(F)(F)F)cc32)CC1	inconclusive: 35.5 µM [inhibitor, partial curve, poor fit]	
FC(F)(F)c1cccc(N2CCN(c3ncnc4c3nc3n4CCCC3)CC2)c1	inconclusive: 1.58 µM [inhibitor, partial curve]	
N#Cc1ccc(CN(Nc2ccccc2)c2ccccc2)cc1	inconclusive: 35.5 µM [inhibitor, single point]	
CCN1CCN(Cc2c(O)ccc3oc(C)c(C(=O)Nc4cccc(Cl)c4C)c23)CC1		inactive: 20.1%
COc1ccc(NC(=O)CSc2n[nH]c(-c3ccncc3)n2)cc1Cl	inconclusive: 35.5 µM [inhibitor, single point]	
O=C(Cn1nc(C(F)(F)F)c2c1CCCC2)Nc1cccc(Cl)c1	active: 11.2 µM	
CCCn1c2ccccc2c2cnn(CC(=O)NCCCN3CCCCC3CC)c(=O)c21 (configuration not stated)	inconclusive: 11.2 µM [inhibitor, single point]	
COc1cc2c(cc1OC)CN(CC(=O)Nc1ccc(C)c(C)c1)CC2		inactive: -0.553%
CCc1nc2c(OCC3CCCCC3)cccn2c1N(C=O)Cc1ccc(OC)cc1	inconclusive: 35.5 µM [inhibitor, single point]	
Cc1ccccc1NC(=O)Cn1cc(S(=O)(=O)c2ccccc2)c(=O)c2ccccc21		inactive: 18.5%
O=C(CN1CCN(C(=O)c2cccc(F)c2)CC1)NC1CCCCC1	inconclusive: 1.26 µM [inhibitor, full curve]	
COCC(C)n1c(SCc2ccc(OC)c(F)c2)nc2ccccc2c1=O (configuration not stated)	inconclusive: 20 µM [inhibitor, single point]	
CC(=O)Oc1ccc(N(C(C)=O)S(=O)(=O)c2cccs2)cc1	inconclusive: 5.62 µM [inhibitor, single point]	
Cc1ccc(-n2cc(CNCCn3nc(C)cc3C)c(-c3ccc(F)cc3)n2)cc1	inconclusive: 35.5 µM [inhibitor, single point]	
CCCN(C(=O)c1cc(S(=O)(=O)N2CCc3ccccc32)cn1C)c1ccc(OCC)cc1	inconclusive: 3.55 µM [inhibitor, partial curve, poor fit]	
CCOC(=O)c1c(C)[nH]c2c1cc(O)c1ccccc12	inconclusive: 14.1 µM [inhibitor, single point]	
O=C(CCNc1cccc(Cl)c1)c1ccco1	inconclusive: 11.2 µM [inhibitor, partial curve]	
C=CCOc1ccc(/C=C/C(=O)OCC(=O)N2CCN(S(=O)(=O)c3ccc(C)cc3C)CC2)cc1		inactive: -5.06%
CCOC(=O)C1=C(N)OC(C)=C(C#N)C1c1ccco1 (configuration not stated)	inconclusive: 15.8 µM [inhibitor, single point]	
O=C(c1cnn(-c2ccccc2)c1)c1cc(Br)ccc1O	inconclusive: 20 µM [inhibitor, single point]	
O=C(Nc1ccccc1O)C(c1ccccc1)c1ccccc1	inconclusive: 10 µM [inhibitor, partial curve]	
COc1ccc(CC(N)c2csc(NC(=O)c3ccc(OC)cc3)n2)cc1 (configuration not stated)	inconclusive: 15.8 µM [inhibitor, single point]	

SMILES	Potency	activity, negative = inhibition
Cc1nnc(NC(=O)CN2CCN(Cc3ccccc3Cl)CC2)s1	inconclusive: 14.1 µM [inhibitor, partial curve]	
O=C(CC(=O)c1ccccc1)c1ccccc1		inactive: 0.588%
CCOc1ccc(-c2cc(NC(=O)c3ccccc3)c(C(=O)OC)s2)cc1	inconclusive: 3.55 µM [inhibitor, single point]	
O=c1[nH]c(C2CCN(S(=O)(=O)c3ccccc3)CC2)nc2c1nnn2Cc1cccc(Cl)c1	inconclusive: 11.2 µM [inhibitor, partial curve, poor fit]	
Cc1ccc(C)c(S(=O)(=O)Nc2ccc(O)c3ccccc23)c1	inconclusive: 17.8 µM [inhibitor, single point]	
Cc1sc2ncnc(N3CCC(C(=O)NNC(=O)COc4cccc(C(F)(F)F)c4)CC3)c2c1C	inconclusive: 10 µM [inhibitor, partial curve, poor fit]	
COc1ccc(NC(=O)Nc2ccc3c(c2)C(=O)N([C@@H](C)CO)C[C@@H](C)[C@@H](CN(C)CC2CCCCC2)O3)cc1	inconclusive: 11.2 µM [inhibitor, partial curve, poor fit]	
COc1ccc2[nH]c3c(c2c1)CCN1C(=O)C(CC(=O)NCCCn2ccnc2)C[C@H](C(=O)N2CCOCC2)[C@@]31CCC1CCCC1 (some centres not stated)	inconclusive: 20 µM [inhibitor, partial curve, poor fit]	
COC(=O)C1=C(C)N(Cc2ccccc2)C(=NCC(C)C)N[C@H]1c1cccc(C(F)(F)F)c1	inconclusive: 17.8 µM [inhibitor, single point]	
O=C(COc1ccc(S(=O)(=O)N2CCc3ccccc32)cc1Cl)NCc1ccccn1	inconclusive: 25.1 µM [inhibitor, single point]	
Oc1cccnc1SCc1ccccc1		inactive: 19.8%
COc1ccc(CCNC(=O)CCc2cn(Cc3ccccc3Cl)c3ccccc23)c(OC)c1	inconclusive: 7.08 µM [inhibitor, partial curve]	
O=c1c2cc(Br)ccc2[nH]c(=S)n1Cc1ccccc1	inconclusive: 35.5 µM [inhibitor, single point]	
Cc1ccc(NC(=O)Cn2c(=O)n(-c3ccc(C)cc3)c(=O)c3c2cnn3C)cc1		inactive: -11.1%
Cc1ccc(Cc2nc3ccccc3nc2SCC(=O)N2CCC(C)CC2)cc1	inconclusive: 11.2 µM [inhibitor, partial curve, poor fit]	
Cc1cc(C)c(COc2ccc(/C=N/n3c(C)n[nH]c3=S)cc2)c(C)c1	inconclusive: 35.5 µM [inhibitor, single point]	
Fc1ccc(CN2CCc3nc(N4CCN(c5ccccc5F)CC4)ncc3C2)c(F)c1	inconclusive: 35.5 µM [inhibitor, partial curve, poor fit]	
Cc1ccccc1C1C(C#N)=C(N)N(N(C)C)C2=C1C(=O)CC(C)(C)C2 (configuration not stated)		inactive: -7.42%
Cc1cc(C)c2c(N)c(C(=O)N3CCc4ccccc4C3)sc2n1	inconclusive: 15.8 µM [inhibitor, single point]	
Cc1cc(OCC(O)CNC(C)c2ccccc2)ccc1C(C)C (configuration not stated)	inconclusive: 20 µM [inhibitor, single point]	
Cc1ccc(C2C3=C(CC(C)(C)CC3=O)N=C3c4ccccc4C(=O)C32)cc1 (configuration not stated)	inconclusive: 35.5 µM [inhibitor, single point]	
